# Assay results published in the supplement of paper PMC12632987.
# Whole data set: some 4,500 sequences, median “median log2 fold change of GCK-ALFA target abundance (FLAG IP / Myc IP barcode read proportion)” near 0.078, cut for the lowest 2% near -0.6. The list shows a part of the results.
# B1: GBRAP_52_6168 (protein)
# chain: SEERARELAERLIEAVKAGDEEEVERILEEAARELDDEELVLLLDHVAEAAASLSPEDKERLVEAALRFEDIAVAAGHDEELLSYQVARVAAAAYAALQA
# B2: GBRAP_39_5678 (protein)
# chain: EEEEENEDTVSYLEGIAAKYLYDTGLSLEEAYKRAKKVLKEEAEKHPELKELLEKLIELADKKGEEAKLALIGIAKLIEEGTPLEEIKEKIEKVIKYFES
# B3: GBRAP_160_4694 (protein)
# chain: SEKVEKAEKFITEEFDEVVSLFDEVSREELAAAVRVAFGQIILELEELGLLTDEVDEIIDEEEEKIVNAILTDPNLTKEELKKMLEEAKKKIMEEIKKVA
# B4: GBRAP_82_6867 (protein)
# chain: KKVIAVEVVSMEPLTPEQLAKANKVAEELKKRAEEKGIELHVIISDASDESIDEANKKLKELKKKYPDVIVVSVAVNKAEDVPAGLEAGTDVAIDEAESR
# B5: GBRAP_160_4593 (protein)
# chain: SAALEALLKFIDEEFEEAKKLVVGQTAEERANIVAVTGGRIIMELAENPEASDELEDAVDEEFDELVDYILANPDLTDEEVKELLEETRERVKEAARKYF
# B6: GBRAP_128_3505 (protein)
# chain: STEEAVEEVRELMERIKEASPEEARELTRRIVELLNSVDDETAEAMVEVILEMLPELSKEHLEVLADTLRELRPTVSPFKANLVAEIEVEALNEALELEE
# B7: GBRAP_43_5789 (protein)
# chain: MKEIVEGTLDFAFTALETPEITDETKAKIFVDAVEFAIDEGVLTPEKLRELIEALKKSVSPETFAKALEEVLKHAKKAGAPEELIKIIEEALEEAKKEIA
# B8: GBRAP_160_4092 (protein)
# chain: SEEIEKLIEEIDELRDETKEMIKGESREERATIIRGFGGEVIMLLFESGIVSEEVEDLADELFDELVATVEANPELTEEEIFALIDETVDEIKEAIKEDH
# B9: GBRAP_184_5242 (protein)
# chain: TVVDREVRASTPEEAKAKLAAVEAEATASGAKVDLFVTLENATKELVETVFAQIKALRDAGLLNSVHVEVDAFADEETKELAFELAHEVGVDALAYNDEG
# B10: GBRAP_79_6745 (protein)
# chain: GVAEARKALAEALKVVLPELTDEELAAAVADDAVLKALLKRAGISEEMADELLAAIDAIPEEAAELFKKAVERMKGLEPEDKKDVLEATIAAVIYKAEQE
# B11: GBRAP_160_4215 (protein)
# chain: DEIVEKLVEIAREEFEEALELIEGESEEERRVILDVAVGNVILEASEIPGVTDEMEETVDRMSEELARELLEAAGESEEERRALIEERTEELRKELKKLA
# B12: GBRAP_83_6909 (protein)
# chain: KEKVAVATTGDHIEEAVDAVIDLTKEEGYEVDLEILTTREDRERVLEAVRRLAEAGIETEVTVLLFGATEEEAEALLAELRAIAEEHGVNIRIEVILLEE
# B13: GBRAP_160_4612 (protein)
# chain: SAKQKELIKEVEELFKEAIEMIKGETAEQRAAIVAVTFGEIILEAEELGVLSDESLEKIDEIGDRLVDTILANPDLTDEELAELIEKAREEVIKIIKEDE
# B14: GBRAP_52_6350 (protein)
# chain: MEEEARKLAEELVELAKEGKEEELRKKAKEIAKTWSEEEIELLFRVLAEMAKTASPEDAEAILYVAEVLADELIEAGRDEYFASALLADVAKAVYENLQK
# B15: GBRAP_184_5273 (protein)
# chain: MVKKVDIVAETGEEAIKELKKAAEEAKKEGAKLKINLLLRNASVEEIKKLFKLIKELKEEGIIEDAVVGLEREKTEEEIDELLKAADEAGVKLVVAISDE
# B16: GBRAP_160_4683 (protein)
# chain: SEKVEKAEKFIKEEFEEVVELFDEVSREELAAATRVAFGQVKLFLEELGLLTDELDEVIDEEEEKIVNKILTDPNITKEEFKKLLEEAKKKIIEELKKIS
# B17: GBRAP_166_4930 (protein)
# chain: SLEEIYEEAQEEVNELAEKAKTADEEELIELALEIEEILKEAKEKGLSPEQLQEILLSALSLLADDPEKALALARYIEAAADDDEELIDVIRRAREEFLA
# B18: GBRAP_137_3632 (protein)
# chain: MKVKIEIKEYEDVVEITITVEDPSKAEEAEELILDIAHEHGALAVSVEVNEDGTLEVEIWVPREKALPLIKALIKAFKEELNAEVELVSEDTPIARELLA
# B19: GBRAP_160_4080 (protein)
# chain: SEAYKKLKEEIKEIFDEALEMMEDVSREEAVAIALVALGEVRLLIEEEEELSEEDKEKLLKEVDKAEKAVRAAADASVEELKALLKKARDEIIKKIEELD
# Target: GABARAP, O95166
# Assay: median log2 fold change of GCK-ALFA target abundance (FLAG IP / Myc IP barcode read proportion) (log2 ratio); each designed protein is fused to an ALFA-tag nanobody in HEK293 cells to bring the named protein to FLAG-tagged glucokinase (GCK); Myc marks an untargeted standard; higher = target protein stabilised (more abundant)
# Conditions: target protein: 3xFLAG-MCP-GCK-ALFA reporter; HEK293 landing pad (RPLP)
# In short: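 The readout is target abundance, the per-binder median log2 ratio of FLAG to Myc barcode read proportions. It came from HEK293 landing-pad cells carrying a recombined ALFA-nanobody-fused binder library, induced with 2 μg mL^−1 doxycycline and transfected with a plasmid for a FLAG-tagged target and a Myc-tagged standard. After 48 h, lysates were immunoprecipitated with anti-FLAG and anti-Myc, and circular RNA barcodes were reverse transcribed, amplified and sequenced. Each barcode needed a proportion of at least 10^−7 in both replicates and each binder at least 3 barcodes per replicate, a pseudocount of 10^−6 was added, and the replicates were pooled.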
# Sequence of GABARAP, O95166 (O95166 whole entry, the tested form may be a part): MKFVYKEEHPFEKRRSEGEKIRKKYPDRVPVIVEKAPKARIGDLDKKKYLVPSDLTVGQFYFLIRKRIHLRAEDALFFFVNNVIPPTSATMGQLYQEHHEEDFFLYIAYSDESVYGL
row,Binder,median log2 fold change
1,B1,0.0856
2,B2,0.102
3,B3,-0.117
4,B4,0.142
5,B5,-0.0368
6,B6,-0.0604
7,B7,0.0692
8,B8,-0.649
9,B9,0.242
10,B10,0.189
11,B11,-0.331
12,B12,0.0247
13,B13,-0.181
14,B14,-0.137
15,B15,0.0569
16,B16,0.198
17,B17,0.138
18,B18,-0.125
19,B19,-0.129
